# Data published in the supplement of paper PMC4604168 (melanoma cell lines).
# The other results are listed elsewhere or left out. Single values are uncertain, as repeats are few or missing.
# Tested on: 501Mel
# Test: cell count relative to DMSO control; melanoma cells; higher = more viable cells
# Conditions: library dose: low library concentration; 72 h
# 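Note: cell number obtained by counting DAPI-stained nuclei in high-throughput microscope images with image analysis software, screen run in 1,536-well plates.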
row,SMILES,cell count [%]
1,"COc1ccc(COc2ccc(Cc3cnc(N)nc3N)cc2OC)cc1 + Cc1cc(SCc2sc(-c3ccc(C(F)(F)F)c(F)c3)nc2C)ccc1OCC(=O)O [GW0742] (first compound 1 µM, partner dose 2 µM)",88.9
2,"Clc1ccc(Nc2nnc(Cc3ccncc3)c3ccccc23)cc1 [vatalanib] + C[As](C)SC[C@H](NC(=O)CC[C@H](N)C(=O)O)C(=O)NCC(=O)O [Darinaparsin] (first compound 2 µM, partner dose 0.4 µM)",145
3,"COc1ccc(COc2ccc(Cc3cnc(N)nc3N)cc2OC)cc1 + C/C(O)=C(\C#N)C(=O)Nc1cc(Br)ccc1Br [LFM-A13] (first compound 1 µM, partner dose 2 µM)",117
4,"COCC[n+]1c2c(n(Cc3cnccn3)c1C)C(=O)c1ccccc1C2=O + Cc1cc(SCc2sc(-c3ccc(C(F)(F)F)c(F)c3)nc2C)ccc1OCC(=O)O [GW0742] (first compound 0.0004 µM, partner dose 2 µM)",69.4
5,"O=C(CCCCCCC(=O)Nc1ccccc1)NO [vorinostat] + Cc1cc(SCc2sc(-c3ccc(C(F)(F)F)c(F)c3)nc2C)ccc1OCC(=O)O [GW0742] (first compound 0.08 µM, partner dose 2 µM)",106
6,"Cc1cc(Nc2cc(N3CCN(C)CC3)nc(Sc3ccc(NC(=O)C4CC4)cc3)n2)n[nH]1 [Tozasertib] + C[C@]12O[C@H](C[C@]1(O)CO)n1c3ccccc3c3c4c(c5c6ccccc6n2c5c31)CNC4=O [Lestaurtinib] (first compound 0.006 µM, partner dose 0.004 µM)",92.2
